Consider 83 compounds from PubChem BioAssay AID1346428 (National Center for Advancing Translational Sciences (NCATS), 2018).

Structures are written as SMILES. Hit rate of the full screen: of about 48,000 compounds, about 1,200 (2.5%) were called active. Not shown: some 2% with an inconclusive outcome.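 Rule for the calls: active = activation of at least 60% and not above a set upper limit (about 1 call in 100 departs from these limits); inconclusive = activation of 40% to 60%, or above that upper limit; inactive = activation under 40%.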 Some of the results follow.

UniProt O75388, sequence (O75388 whole entry, looked up, the tested form may be a part): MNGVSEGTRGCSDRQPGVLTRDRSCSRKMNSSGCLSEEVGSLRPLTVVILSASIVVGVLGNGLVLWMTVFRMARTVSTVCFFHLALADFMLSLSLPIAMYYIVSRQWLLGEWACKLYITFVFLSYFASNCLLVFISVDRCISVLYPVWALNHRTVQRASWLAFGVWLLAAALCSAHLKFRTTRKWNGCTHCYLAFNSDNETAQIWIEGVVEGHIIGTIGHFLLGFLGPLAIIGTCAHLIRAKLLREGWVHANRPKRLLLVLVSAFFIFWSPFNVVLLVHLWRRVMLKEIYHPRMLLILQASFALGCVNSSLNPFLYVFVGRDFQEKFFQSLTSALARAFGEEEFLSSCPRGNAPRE

The target in the assay is Probable G-protein coupled receptor 32 (Homo sapiens) (UniProt O75388). Description: qHTS for Agonists of Human Resolvin D1 Receptor DRV1. Note: 0% is about no effect. As to conditions: CHO-K1 GPR32 beta-arrestin PathHunter luminescence, 90 min; at 76.9 µM; active compounds read high; zero percent set by DMSO-only wells. The method, boiled down:
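PathHunter enzyme-fragment complementation, CHO-K1 GPR32 stable line; 2,500 cells/well, overnight attach; cpd 90 min 37 °C 5% CO2; detection reagent 1 h RT; chemiluminescence. DMSO = EC0.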
Turning to `COc1ccc(-c2c3c(=O)n(C)c(=O)n(C)c3c3c(-c4ccc(C)cc4)nc4ccccc4n23)cc1`, the activation was inactive: 1.7%. Take `Cc1ccc(NC(=O)Cn2c(-c3ccc4c(c3)OCO4)cn(-c3ccccc3)c2=O)cc1`: the activation was inactive: -24.5%.

Turning to `Cc1ccc2c(c1)c1c(c(=O)n(Cc3ccccc3)c(=O)n1CC(=O)Nc1ccccc1C)n2C`, the activation is inactive: -6.14%.

`Cc1ccc(S(=O)(=O)Nc2cc3c(cc2N2CCOCC2)n(C)c(=O)n3C)c(C)c1`: the activation was inactive: -12%. Turning to `CCCCCNC(=O)C(=O)NCC(c1ccc2c(c1)OCO2)N1CCOCC1` (stereo not drawn), the activation was inactive: -10.3%.

For the compound `CCC(C(=O)Nc1cccc(C#N)c1)n1c(=O)c(-c2ccccc2NC(C)=O)nc2ccccc21` (stereo not drawn), the activation was inactive: -39.6%. As to `Cc1ccc(CSc2nc(=O)c3c(n2C)NC(=O)CC3c2ccc(OC(C)C)cc2)cc1` (stereo not drawn), the activation is inactive: -6.84%.

`COC(=O)C1=C(C)NC(C)=C(C(=O)OCCc2ccc(N3CCN(C(c4ccccc4)c4ccccc4)CC3)cc2)C1c1cccc([N+](=O)[O-])c1` (stereo not drawn): the activation was inactive: -0.0168%. On to `CCN1CCC(N(Cc2cccc(OC)c2)C(=O)Nc2ccc(C)cc2Cl)CC1`, for which the activation was inactive: -9.95%. Regarding `CCCN(CCc1ccccc1)C1CCc2c(O)cccc2C1` (stereo not drawn), the activation is inactive: -21.7%.

Consider `CCc1nnc(NC(=O)CSCc2cc(=O)c3ccc(C)cc3[nH]2)s1`, for which the activation is inactive: -12.2%. Take `N.N.N.N.N.N.N.N.N.N.N.N.N.N.O.O.[Ru+4].[Ru+5].[Ru+5]`: the activation is inactive: -17.4%. Take `COc1cc(NC(=O)c2cnn(-c3cccc(F)c3)c2C2CCNCC2)cc(OC)c1OC`: the activation was inactive: 23.5%.

In the case of `Cc1cc(O)c(C(c2ccccc2Cl)N2CCN(c3ccccc3)CC2)c(=O)n1Cc1ccco1` (stereo not drawn), the activation was inactive: -8.77%.

In the case of `COc1cc(CN(C(=O)COc2ccc(C)c(C)c2)c2ccccn2)cc(OC)c1OC`, the activation is inactive: -12.7%.

As to `COc1ccc(NC(=O)CN(Cc2ccccc2)S(=O)(=O)c2ccc3nc(C)sc3c2)cc1`, the activation is inactive: -10.6%. Then `O=C(Cn1cccc1C(=O)c1ccccc1)NCc1ccc(F)cc1`, with inactive: -17.9%; and `CN1C(C(=O)Nc2ccc(OC(F)(F)F)cc2)=CC(c2ccc3c(c2)OCO3)=NS1(=O)=O`, with inactive: -10.2%. Consider `COc1cc2c(=O)n(Cc3ccccc3)c(=O)n(CC(=O)Nc3cc(C(F)(F)F)ccc3Cl)c2cc1OC`, for which the activation was inactive: -1.3%. Next, `COC(=O)c1cc2oc(C)cc2n1Cc1c(C)cc(C)cc1C`: inactive: -19.8%; `CCN(CC)c1ccc(NS(=O)(=O)c2ccc3c(c2)CCCN3C(C)=O)c(C)c1`: inactive: -6.99%; `COc1cc2nc(SCC(=O)Nc3ccc(F)cc3)n3nc(CCn4c(C)nc5ccccc54)nc3c2cc1OC`: inactive: -8.55%. Turning to `CCOC(=O)c1c(C)oc2ncnc(NCCc3ccccc3)c12`, the activation is inactive: 19.2%. With `CCc1ccc(N2CCn3c2nc2c3c(=O)n(Cc3cccc(C)c3)c(=O)n2C)cc1`, the activation was inactive: -13.1%. For `COc1ccc(C2c3c(n(C)c4ccccc34)C(=O)N2CC(=O)Nc2ccc(Cl)cc2)cc1` (stereo not drawn), the activation was inactive: -28.3%. Next, `CCCN1CCN(CCNC(=O)Nc2cc(OC)cc(OC)c2)CC1`: inactive: -7.47%. For the compound `Cc1ccc(NC(=O)C(=O)NCC(c2ccc3c(c2)OCO3)N2CCOCC2)c(C)c1` (stereo not drawn), the activation is inactive: -0.96%.

For the compound `O=C(CSc1ncc2c(n1)-c1ccccc1N(Cc1ccc(F)cc1)S2(=O)=O)c1ccc(Br)cc1`, the activation is inactive: -3.24%. `Cc1ccc(OC(=O)c2snnc2C)cc1C`: the activation was inactive: -0.261%.

In the case of `CC(C)c1ccc(OCc2cc(=O)n3c4c(sc3n2)CCCC4)cc1`, the activation is inactive: -0.0055%. Next, `Cc1cccc(NC(=O)CSc2nc3ccc(NC(=O)c4cccs4)cc3s2)c1`: active: 64.3%. Then `CCc1ccc(Nc2cc(C)nc3nc(Cc4ccc(Cl)cc4)nn23)cc1`, with inactive: -1.75%. Turning to `COc1ccc(OCC(=O)Nc2cc(-c3cccc(Cl)c3)nn2-c2ccccc2)cc1`, the activation is active: 100%. As to `N#Cc1ccc(C(=O)N2CCN(c3nc4ccc(F)cc4s3)CC2)cc1`, the activation was inactive: 29.6%. Then `O=C(NC1CCCCC1)c1ccc2c(c1)sc1nc(-c3ccccc3)cn12`, with inactive: 38.5%; and `CCOC(=O)c1ccc(CSc2nnc3cc(C)c4ccccc4n23)cc1`, with inactive: -33.5%. Next, `COc1ccccc1NC(=O)CN(c1ccc(C(C)C)cc1)S(=O)(=O)c1c(C)noc1C`: inactive: -29.5%; `CCN(CC)CCN(C(=O)c1ccco1)c1nc2c(C)cccc2s1`: inactive: 40.3%. Consider `COc1cc2c(cc1OC)C(c1ccc(Cl)cc1)N(c1ccc(C)c(F)c1)C(=O)C2` (stereo not drawn), for which the activation was inactive: -7.38%. With `COc1ccc(-c2oc3ncn4nc(-c5ccc(Cl)cc5)nc4c3c2-c2ccc(OC)cc2)cc1`, the activation is inactive: -8.99%.

Consider `O=C(c1ccc2c(c1)OCCO2)N(Cc1cccnc1)c1nc2ccc(F)cc2s1`, for which the activation is inactive: -5.45%. Then `CCOc1ccc(CNC(=O)c2cc3c(=O)n(C)c4ccccc4c3s2)cc1`, with inactive: 19.4%; and `Cc1ccc(NC(=O)Cn2c(=O)n(Cc3ccco3)c(=O)c3ccccc32)cc1`, with inactive: -12.4%; and `CCN(CC)CCCNC(=O)c1cc(-c2ccc(OC)c(OC)c2)on1`, with inactive: -10.8%. On to `Cc1cc(C)n2nc(CNS(=O)(=O)c3ccc(Cl)cc3)nc2n1`, for which the activation is inactive: -4.62%.

In the case of `CC1CN(C(=O)N2CCC(C(=O)NC3CCCCCC3)CC2)c2cc(Cl)ccc2O1` (stereo not drawn), the activation was inactive: 1.62%. Consider `Cc1ccc(NC(=O)C2CCCN2S(=O)(=O)c2cccc3cccnc23)cc1` (stereo not drawn), for which the activation was inactive: -1.52%. Then `COc1ccc(-c2ccnc3c(-c4ccc(F)cc4)c(C)nn23)cc1OC`, with inactive: 11.5%. Take `COc1cc(C(=O)NC2CC(=O)N(c3cccc(F)c3)C2)cc(OC)c1OC` (stereo not drawn): the activation is inactive: -8%. Turning to `O=C(Cn1cc(SCc2cccc(Cl)c2)c2ccccc21)N1CCOCC1`, the activation was inactive: -31.2%.

On to `O=c1[nH]c(SCc2ccc(F)cc2)nc2c1CCCC2`, for which the activation was inactive: 33.4%. In the case of `CCc1nnc2c(NCc3ccc(F)cc3)nc3ccccc3n12`, the activation was inactive: 0.395%.

Regarding `COc1ccc(CNC(=O)C2CCCN(S(=O)(=O)c3ccc4c(c3)CCCN4C(C)=O)C2)cc1` (stereo not drawn), the activation is inactive: 8.41%. As to `COc1ccc(NC(=O)c2ccco2)cc1NC(=O)COc1cc(C)cc(C)c1`, the activation was inactive: 12.5%. With `CCC(=O)N1CCc2cc(Br)cc(S(=O)(=O)N3CCN(c4ccccc4)CC3)c21`, the activation is inactive: -0.862%. Then `CCOc1ccc2nc(N3CCCC(C(=O)Nc4ccc(Br)c(C)c4)C3)sc2c1` (stereo not drawn), with inactive: -1.96%; and `COc1ccc2c(c1)NC(c1ccc(OCC(C)C)cc1)=NC(c1ccncc1)=N2`, with inactive: -29.2%. Consider `COc1ccc(CCNC(=O)c2cc(Sc3cccc(Cl)c3)nc3ccccc23)cc1OC`, for which the activation is inactive: -19.6%.

For `COc1ccc2c(c1)CC(C(=O)N1CCC(C(N)=O)CC1)CO2` (stereo not drawn), the activation was inactive: -1.46%. Turning to `COc1ccccc1N1CCN(C(=O)c2oc3ccccc3c2NC(=O)C(C)Oc2ccccc2)CC1` (stereo not drawn), the activation was inactive: -11.9%. As to `O=C(Nc1cc(Cl)cc(Cl)c1)c1ccc(F)c(S(=O)(=O)N2CCCCCC2)c1`, the activation was inactive: -0.8%.

As to `Cc1ccc(C(C)C)c(OCCn2cc(C(=O)c3ccco3)c3ccccc32)c1`, the activation is inactive: -6.22%. Turning to `CCOc1ccc(-c2n[nH]c3c2C(c2ccccc2OC)N(c2ccc(Br)cc2)C3=O)cc1` (stereo not drawn), the activation was inactive: -5.97%. Turning to `CCOc1ccccc1CNC(=O)CCCN1C(=O)COc2ccc(C)cc21`, the activation is inactive: -17.4%. In the case of `COc1ccc(-c2cn(-c3ccc(C)cc3)c(S(=O)(=O)CC(=O)Nc3ccccc3)n2)cc1`, the activation is inactive: 10.8%. In the case of `Cc1oc2ncn(CC(C)C)c(=O)c2c1C(=O)Nc1cccc(C(F)(F)F)c1`, the activation is inactive: -5.96%. Then `O=C(Nc1ccc(Cl)c(Cl)c1)c1cc(S(=O)(=O)N2CCN(c3cccc(Cl)c3)CC2)ccc1F`, with inactive: -8.24%. Take `CC(C)c1ccccc1NC(=O)CSc1nnc(COc2ccccc2)o1`: the activation is inactive: 11.6%. For `Cc1ccc(CNC(=O)CN(C)S(=O)(=O)c2ccc(Br)s2)cc1`, the activation is inactive: -13.4%. Then `Cc1cc(Br)ccc1NC(=O)c1coc(=O)c2ccccc12`, with active: 71.9%; and `COc1ccc(-c2nnc(SCC(=O)Nc3ccccc3C)o2)cc1OC`, with inactive: 16.6%.

Turning to `CCn1c(=O)c2sccc2n2c(CCC(=O)N3CCN(c4ccccc4OC)CC3)nnc12`, the activation was inactive: -3.69%. As for `O=C(NCCCCc1ccccc1)c1nn(-c2ccccc2F)nc1CO`, the activation is inactive: -4.23%. As to `CC(C)OCCCn1c(SCC(N)=O)nc2c(sc3ccccc32)c1=O`, the activation was active: 115%. For the compound `Cc1nn(CCC(=O)NCc2cccc(Br)c2)c(=O)c2nn(-c3ccccc3)c(C)c12`, the activation was inactive: -15%. Turning to `O=C(c1ccc(CS(=O)c2ccccc2Cl)o1)N1CCN(c2cccc(C(F)(F)F)c2)CC1` (stereo not drawn), the activation is inactive: 13.4%. As for `CC(C)NC(=O)Cn1ccc2cc(S(=O)(=O)N3CCCCCC3)ccc21`, the activation is inactive: 8.55%. Then `CCCOc1ccc(C(=O)NCC(c2ccc(OC)cc2)N2CCCCC2)cc1` (stereo not drawn), with inactive: -10.5%; and `Cc1cccc(OCCCSc2nc(-c3ccc(C(C)(C)C)cc3)nc3cc(=O)[nH]n23)c1C`, with inactive: -26%; and `O=S(=O)(c1ccccc1)c1nc(-c2cccs2)oc1N1CCCCC1`, with inactive: -5.56%. Next, `CC(NC(=O)c1ccc(CSc2nc3ccncc3n2Cc2ccc(F)cc2)cc1)c1ccccc1` (stereo not drawn): inactive: -0.168%. With `Cc1cccc(-n2c(=O)c3c(c4cc(C)ccc4n3C)n(CC(=O)Nc3ccccc3Cl)c2=O)c1`, the activation was inactive: 6.49%. Consider `CCCCCn1c(=O)[nH]c2cc(C(=O)NCc3ccc(F)cc3)ccc2c1=O`, for which the activation is inactive: -19.1%.
